About 65 (0.1%) of roughly 45,000 compounds were called active. Inconclusive results, whose numbers are uncertain, are shown with a selection of clear calls. Calls come from the whole dose curve; as a rule, active = well fitted activation curve with a large enough effect; inconclusive = small, poorly fitted or top-dose-only effect; inactive = no such curve, though single readings can be large or run the other way. Potencies of inconclusive entries are doubtful fits and often do not repeat.
The molecules below were run against Galactocerebrosidase (Homo sapiens) (UniProt P54803) (assay: A Novel Cell-Based Assay to Identify Small Molecules for B -Galactocerebrosidase). Conditions: 145M-Twi-hGALC-G270D cells (Twitcher mouse brain line with human GALC G270D), HMU-beta-Gal fluorescence, 48 h; activation: at 57.5 µM (top of the series).
Excerpt: Lysosomal storage diseases (LSDs) are caused by genetic mutations in genes encoding proteins important for normal lysosomal function. Globoid cell leukodystrophy (GLD), mostly known as Krabbe disease, is a prototype of the neurological LSDs caused by deficiency of beta-galactocerebrosidase (GALC). In brain specimens of GLD patients, psychosine levels are substantially elevated. At elevated concentrations, psychosine becomes cytotoxic to neuronal cells, particularly to oligodendrocytes (OLG), neural cells responsible for myelin formation. Therefore, the biochemical disturbances in GLD are manifested by different degrees of brain demyelination resulting in a broad spectrum of neurological manifestations. Most of the FDA-approved therapies are based on enzyme replacement therapeutic (ERT) agents, which treat non-neurological symptoms of Gaucher disease, Fabry disease, few mucopolysaccharidoses and Pompe disease. Unfortunately, in GLD, a primarily neurological LSD, ERT agents, as large molecular weight molecules unable to cross the blood-brain barrier, which makes this an inefficacious therapeutic approach. In GLD, increasing the residual GALC activity just above the critical threshold (~10% of wild type enzymatic activity), the cytotoxic levels of psychosine will be reduced, avoiding the OLGs apoptosis and the subsequent demyelination process. This will translate in disease stabilization and amelioration of GLD patient symptoms.
A cell-based assay in 1,536-well plate format was developed to implement a quantitative high-throughput screening (qHTS) assay using GLD-disease relevant cells to identify small molecules that produce enhancements of the residual enzymatic activity levels of mutants GALC found and prevalent in GLD patients. Compounds that are active may therefore have some therapeutic application for GLD. After the treatment of live cells for a determined period, using a fluorescent GALC specific substrate, the mutant residual GALC activity is measured. This cell-based qTHS assay was used to screen part of the MLPCN library for small molecule able to increase the mutant GALC enzymatic activity. In this assay, increased fluorescent signal corresponds to enhanced levels of mutant GALC residual enzymatic activity. Activation is the desired outcome for this assay.
NIH Chemical Genomics Center [NCGC]
NIH Molecular Libraries Probe Centers Network [MLPCN]
Assay Submitter (PI): Gustavo Maegawa MD,PhD, University of Florida, Gainesville, FL
2)#Two cell lines were established for the assay: 145M-Twi-hGALC-G270D (brain-derived Twitcher cell line stably expressing human GALC-G270D) and 145M-Twi-hGALC-WT (same 145M-Twi stably expressing human GALC wild type). The Twitcher is the murine C57B/6 model for GLD with naturally occurring homozygous nonsense GALC mutation. The 145M-Twi cell line was established at Maegawa lab (Ribbens J et al 2014).
a.#Media: DMEM/F12 (1:1) with 10% fetal bovine-serum (FBS) with penicillin/streptomycin (PS-1X - 100 I.U./mL of penicillin+100 ug/mL of streptomycin).
b.#The 6-Hexadecanoylamino-4-methylumbelliferyl-b-D-galactoside (HMU-B-gal) substrate was prepared as per Wiederschain et al 1992. Using 20-mL borosilicate tubes, 2.20 mg of HMU-b-Gal was added in each tube to prepare substrate-film with a final air-nitrogen stream evaporation to remove all diluent solvents.
c.#The HMUb-Gal substrate buffer consists of 0.2 M Na2HPO4 (sodium phosphate dibasic)/ 0.1 M Citric Acid with the pH adjusted to 5.2 using HCl. Sodium Azide at 0.02% and Sodium Taurocholate (NaTC) at 1 mg/mL were added to this substrate buffer.
d.#The HMU-b-Gal stopping buffer consist of 0.5 M NaHCO3 (sodium bicarbonate) /0.5 M Na2CO3 (sodium carbonate). […] Triton X-100 at 0.25% was added.
4)#Preparation of HMU-b-Gal substrate tubes
Adding 18.6 mL of the HMUb-Gal substrate buffer to each 20-mL tube (2.20 mg of HMU-b-Gal) will reach a concentration of 0.2 mM. Vortex well the tube until the solution is fully homogenized (clear cloudy solution). […]
Note: nearly all actives have a fitted effect of over 65% in size.
Potency is the fitted concentration of half-maximal effect; tags give direction and shape of the fitted curve.
Throughout, for activation: 0% is about no effect.

Sequence of UniProt P54803 (P54803 whole entry, looked up): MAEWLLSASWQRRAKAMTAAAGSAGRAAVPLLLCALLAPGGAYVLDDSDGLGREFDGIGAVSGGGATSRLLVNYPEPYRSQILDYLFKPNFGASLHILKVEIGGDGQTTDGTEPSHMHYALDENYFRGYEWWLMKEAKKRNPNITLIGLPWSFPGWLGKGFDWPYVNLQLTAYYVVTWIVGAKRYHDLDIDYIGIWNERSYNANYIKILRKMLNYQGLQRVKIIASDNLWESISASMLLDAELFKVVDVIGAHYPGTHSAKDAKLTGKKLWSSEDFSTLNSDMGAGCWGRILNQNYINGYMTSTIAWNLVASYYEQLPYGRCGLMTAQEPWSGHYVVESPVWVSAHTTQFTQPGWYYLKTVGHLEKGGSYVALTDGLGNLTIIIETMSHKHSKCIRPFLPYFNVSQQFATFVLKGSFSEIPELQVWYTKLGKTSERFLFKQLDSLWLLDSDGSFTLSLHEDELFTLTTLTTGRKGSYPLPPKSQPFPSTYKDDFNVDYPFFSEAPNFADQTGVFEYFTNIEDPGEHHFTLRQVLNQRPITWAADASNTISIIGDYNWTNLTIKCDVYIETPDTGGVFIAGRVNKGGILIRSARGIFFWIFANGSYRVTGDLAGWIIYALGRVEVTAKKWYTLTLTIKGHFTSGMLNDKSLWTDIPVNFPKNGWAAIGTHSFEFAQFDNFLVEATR

Structure (SMILES)	Potency	activation
OCCCc1nc2n(n1)C(c1cccc(Cl)c1)C=C(c1ccccc1)N2 (configuration not stated)	inconclusive: 39.8 µM [activator, single point]	
Cc1ccccc1NC(=O)c1c(NC(=O)C(F)(F)F)sc2c1CCCCC2		inactive: -11.6%
CCc1cccc(NC(=O)Cn2c(=O)n(CCC(=O)NCC3CCCO3)c(=O)c3cc(OC)c(OC)cc32)c1 (configuration not stated)	inconclusive: 35.5 µM [activator, single point]	
Cc1c(-c2ccc(Cl)cc2)c(=O)oc2c(CN3CCCC3)c(O)ccc12	active: 39.8 µM	
CCOc1ccc(-c2nnc(SCC(=O)c3ccc(F)cc3)n2-c2ccccc2)cc1		inactive: -25.7%
CCSc1nnc2c(n1)OC(c1ccc(OCC(=O)O)cc1)Nc1ccccc1-2 (configuration not stated)	inconclusive: 35.5 µM [activator, single point]	
COc1ccccc1CNC(=O)CCC1N=C2c3ccccc3N=C(SCC(=O)NCCc3ccccc3)N2C1=O (configuration not stated)	inconclusive: 39.8 µM [activator, single point]	
CCN(CC)c1ccc2cc(-c3nc(-c4cc(OC)c(OC)c(OC)c4)no3)c(=O)oc2c1	inconclusive: 1.78 µM [activator, full curve, poor fit]	
Cc1ccc(S(=O)(=O)N(CC(=O)Nc2ccc3c(c2)OCO3)c2ccc(C)c(Cl)c2)cc1	inconclusive: 0.178 µM [activator, full curve, poor fit]	
Cc1cc(C(=O)C(=O)Nc2nnc(C(C)C)s2)c(C)n1-c1ccccc1		inactive: -3.19%
COc1ccc2c(c1)c1c(c(=O)n(-c3cccc(C)c3)c(=O)n1CC(=O)N1CCCC1)n2C	inconclusive: 20 µM [activator, single point]	
Cc1ccc(CNCc2c(C(=O)O)c(C)n(Cc3ccc(C)cc3)c2C)cc1		inactive: -14.7%
CCOC(=O)CC(NC(=O)c1cc2c(=O)n3cccc(C)c3nc2s1)c1ccc(OCC(C)C)c(OC)c1 (configuration not stated)	inconclusive: 1.78 µM [activator, full curve, poor fit]	
COc1ccc2c(c1)c1c(c(=O)n(Cc3ccccc3)c(=O)n1CC(=O)Nc1ccccc1F)n2C	inconclusive: 5.62 µM [activator, single point]	
COc1ccccc1C(=O)OCc1cc(=O)n2c(C)csc2n1		inactive: 1.34%
Cc1cccc2c1-c1sc(C(=O)NCc3ccccc3Cl)cc1CO2		inactive: -5.95%

Structure (SMILES)	Potency	activation
Cc1cccc(C)c1-n1ncc(C(=O)NCCN2CCN(C)CC2)c1C1CCN(C(=O)OC(C)(C)C)CC1		inconclusive: 78.1% [activator]
CCc1ccccc1N1CC(c2nc3ccccc3n2CCCOc2ccc(Cl)cc2)CC1=O (configuration not stated)	inconclusive: 1.78 µM [activator, full curve]	
CCc1ccccc1-n1c(N)c(C(=O)OC)c2nc3ccccc3nc21	active: 25.1 µM	
Oc1ccccc1Nc1nc2ccccc2n2nnnc12		inactive: -6.04%
COC(=O)c1ccc(C2Nc3c(C)cccc3-c3cc(C)nn32)cc1 (configuration not stated)	inconclusive: 39.8 µM [activator, single point]	
C[n+]1c2cc(N)ccc2cc2ccc(N)cc21 (tested in a mixture with another compound)		inactive: -14.9%
C=Cc1ccc(Cn2c(C)c(CNCCc3ccc(OCC)cc3)c(C(=O)O)c2C)cc1		inactive: 0.0633%
CCOc1ccc(NC(=O)CCc2c(C)nc3nc(-c4cc(OC)cc(OC)c4)nn3c2C)cc1	inconclusive: 0.178 µM [activator, full curve, poor fit]	
CC1CCc2c(sc3nc(-c4cc5ccccc5oc4=O)nc(Cl)c23)C1 (configuration not stated)	inconclusive: 2.24 µM [activator, single point]	
COc1ccccc1OCC(=O)Nc1c(C(=O)c2ccc(F)cc2)oc2ccccc12	inconclusive: 39.8 µM [activator, single point]	
CCc1ccc(S(=O)(=O)c2nnn3c2nc(NCCNC(C)=O)c2cc(Cl)ccc23)cc1	inconclusive: 39.8 µM [activator, single point]	
CCc1ccc(S(=O)(=O)c2nnn3c2nc(NCc2ccccc2OC)c2cc(Cl)ccc23)cc1	inconclusive: 25.1 µM [activator, single point]	
CCCN(CCC)CC(O)Cn1cc(/C=C/C(=O)c2ccc(OCC)cc2)c2ccccc21 (configuration not stated)	active: 35.5 µM	
CC(C)(C)NCC(O)COc1ccccc1OCC1CCCO1 (configuration not stated)		inactive: -14.2%
Cc1ccc2oc3c(c(=O)c2c1)C(c1cccc(O)c1)N(CCCN1CCOCC1)C3=O (configuration not stated)	inconclusive: 1 µM [activator, full curve]	
COc1ccc(CCNC(=O)C(=O)NCC(c2cccs2)S(=O)(=O)c2ccccc2)cc1 (configuration not stated)	inconclusive: 44.7 µM [activator, partial curve, poor fit]	

From PubChem BioAssay AID1159614 (National Center for Advancing Translational Sciences (NCATS), 2016)
